Results taken from the supplement of paper PMC9446081.
About 220 (0.56%) of roughly 39,000 compounds showed activity. Some of the results follow.
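Note: static incubation at 37 °C against the wild-type strain, values averaged over two biological replicates.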

These compounds were tested on Escherichia coli K-12 BW25113 (assay: relative growth (OD600 normalised to plate interquartile mean) (fraction); higher = less growth inhibition, active = 0.2 or less). Conditions: 50 µM; LB; incubation time: overnight (16-24 h).
`C[C@H](CO)N1C[C@H](C)[C@@H](CN(C)Cc2ccncc2)Oc2ccc(NC(=O)Nc3cccc4ccccc34)cc2CC1=O` was tested, and the relative growth was inactive: 0.922. For `CCN(CC)CCNc1nc(=O)[nH]nc1C`, the relative growth was inactive: 1.02. In the case of `CCCNC(=O)Nc1ccc2c(c1)C(=O)N(C)C[C@H](OC)[C@H](C)CN(C(=O)C1CCOCC1)[C@@H](C)CO2`, the relative growth is reported as inactive: 0.988. In the case of `Cc1ccc(S(=O)(=O)Nc2ccc3c(c2)C(=O)N(C)[C@@H]2CC[C@H](CC(=O)NCCc4ccncc4)O[C@@H]2CO3)cc1`, the relative growth is reported as inactive: 0.999. In the case of `C[C@@H]1CN([C@H](C)CO)C(=O)c2cccc(NC(=O)c3ccc(-c4nccs4)cc3)c2O[C@H]1CN(C)S(=O)(=O)c1cn(C)cn1`, the relative growth is reported as inactive: 0.989. In the case of `COc1ccc(S(=O)(=O)Nc2cccc3c2O[C@H](CN(C)S(=O)(=O)c2c(C)noc2C)[C@@H](C)CN([C@@H](C)CO)C3=O)cc1`, the relative growth is reported as inactive: 0.931. For `COc1cccc(C(=O)Nc2ccc3c(c2)C(=O)N(C)[C@@H]2CC[C@@H](CC(=O)NCC(F)(F)F)O[C@@H]2CO3)c1`, the relative growth was inactive: 1.01. With `C[C@H](CO)N1C[C@H](C)[C@@H](CN(C)S(=O)(=O)c2ccc(Cl)cc2)OCCCC[C@H](C)Oc2ccc(NC(=O)NC3CCCCC3)cc2C1=O` the relative growth was inactive: 1.04. With `CC(C)C[C@@H]1NC(=O)[C@@H]2C[C@H](C(=O)NCCCCCNC(=O)CS)[C@H](c3ccc(O)cc3)N2C1=O` the relative growth was inactive: 0.813. For `COc1ccc(NC(=O)N(C)C[C@@H]2OCCCC[C@@H](C)Oc3ccc(NC(=O)Nc4ccc(F)cc4)cc3C(=O)N([C@H](C)CO)C[C@@H]2C)cc1`, the relative growth was inactive: 1.05. With `CN(C)CC(=O)N[C@@H]1CC[C@H](CCn2cc(CN(C)C)nn2)O[C@@H]1CO` the relative growth was inactive: 1.01. In the case of `C[C@@H]1CN([C@H](C)CO)C(=O)c2cc(NC(=O)NC3CCCCC3)ccc2O[C@H]1CN(C)C(=O)Nc1cccc2ccccc12`, the relative growth is reported as inactive: 0.988. With `COc1ccc(NC(=O)N(C)C[C@@H]2OCCCC[C@H](C)Oc3ccc(NC(=O)Nc4ccc5c(c4)OCO5)cc3C(=O)N([C@@H](C)CO)C[C@@H]2C)cc1` the relative growth was inactive: 1.01. With `C[C@H]1CN([C@@H](C)CO)C(=O)Cc2cc(NC(=O)Cc3cn(C)c4ccccc34)ccc2O[C@H]1CN(C)Cc1ccc(C(F)(F)F)cc1` the relative growth was inactive: 1.05. In the case of `CS(=O)(=O)Nc1ccc2c(c1)C(=O)NC2=O`, the relative growth is reported as inactive: 1.01. In the case of `COc1ccccc1C#Cc1cnc2c(c1)C(=O)N([C@H](C)CO)C[C@H](C)[C@@H](CN(C)C(=O)CC1CC1)O2`, the relative growth is reported as inactive: 0.968. In the case of `C[C@H](CO)N1C[C@H](C)[C@H](CN(C)S(=O)(=O)c2cn(C)cn2)Oc2ccc(NC(=O)C3CC3)cc2C1=O`, the relative growth is reported as inactive: 0.99. For `C[C@H](CO)N1C[C@H](C)[C@H](CN(C)C(=O)Nc2ccc(F)cc2)OCCCC[C@H](C)Oc2ccc(NC(=O)C3CCCC3)cc2C1=O`, the relative growth was inactive: 0.992. For `C[C@@H]1CN([C@H](C)CO)C(=O)Cc2cc(NC(=O)Cc3cn(C)c4ccccc34)ccc2O[C@@H]1CN(C)C(=O)Nc1ccc(C(F)(F)F)cc1`, the relative growth was inactive: 1. `Cc1ccc2c(c1)/C(=C/c1ccncc1)c1cc3ccccc3nc1-2` was tested, and the relative growth was inactive: 1.03. `C[C@@H]1CN([C@@H](C)CO)C(=O)c2cc(NC(=O)c3ccccc3)ccc2O[C@@H](C)CCCCO[C@H]1CN(C)CC1CCCCC1` was tested, and the relative growth was inactive: 0.988. In the case of `Cn1nnc2c(N3CCC(O)CC3)ncnc21`, the relative growth is reported as inactive: 1.01. With `O=C(CCCCCCC(=O)Nc1ccccc1)NO` the relative growth was inactive: 1.18. With `O=C(C[C@@H]1CC[C@H]2[C@@H](COC[C@@H](O)CN2S(=O)(=O)c2ccc(Cl)cc2)O1)NCC1CCCCC1` the relative growth was inactive: 0.804. `C[C@@H]1CCCCO[C@H](CN(C)C(=O)C2CCCCC2)[C@H](C)CN([C@H](C)CO)C(=O)c2cc(NC(=O)NC3CCCCC3)ccc2O1` was tested, and the relative growth was inactive: 1.02. `Cc1noc(C)c1NC(=O)N(C)C[C@H]1Oc2c(NS(=O)(=O)c3cn(C)cn3)cccc2C(=O)N([C@@H](C)CO)C[C@H]1C` was tested, and the relative growth was inactive: 0.962. `CCCC[C@@H](C#N)c1ccccn1` was tested, and the relative growth was inactive: 0.971. `C[C@@H]1CCCCO[C@@H](CN(C)S(=O)(=O)c2ccc(Cl)cc2)[C@@H](C)CN([C@H](C)CO)C(=O)c2cc(NC(=O)NC3CCCCC3)ccc2O1` was tested, and the relative growth was inactive: 0.986. With `O=C(O)[C@H](O)[C@H](O)[C@H](O)[C@H](O)CO` the relative growth was inactive: 1.01. In the case of `Cc1ccc(S(=O)(=O)N(C)C[C@H]2OCCCC[C@H](C)Oc3ccc(NC(=O)Cc4ccccc4)cc3C(=O)N([C@H](C)CO)C[C@@H]2C)cc1`, the relative growth is reported as inactive: 1.03. `O=c1ccn([C@@H]2O[C@H](COP(=O)(O)OP(=O)(O)OP(=O)(O)OP(=O)(O)OC[C@H]3O[C@@H](n4ccc(=O)[nH]c4=O)[C@H](O)[C@@H]3O)[C@@H](O)[C@H]2O)c(=O)[nH]1` was tested, and the relative growth was inactive: 0.988. In the case of `C[C@@H]1CN([C@H](C)CO)C(=O)c2cc(C#CCN(C)C)cnc2O[C@H]1CN(C)S(=O)(=O)c1cn(C)cn1`, the relative growth is reported as inactive: 0.983. With `C[C@H](CO)N1C[C@H](C)[C@H](CN(C)Cc2cccc(C(F)(F)F)c2)Oc2ncc(-c3cccc(F)c3)cc2C1=O` the relative growth was inactive: 1.01. `COc1cc2c(NC3CCN(C)CC3)nc(N3CCCN(C)CC3)nc2cc1OCCOCCN(C)C` was tested, and the relative growth was inactive: 0.995. For `COc1ccccc1N1CCN(CCCNc2cc(=O)n(C)c(=O)n2C)CC1.Cl`, the relative growth was inactive: 0.932. For `CC[C@@H](N)C12CC3CC(CC(C3)C1)C2`, the relative growth was inactive: 0.976. For `C[C@@H]1CCCCO[C@@H](CN(C)S(=O)(=O)c2ccc(F)cc2)[C@H](C)CN([C@@H](C)CO)C(=O)c2cc(NC(=O)Cc3ccccc3)ccc2O1`, the relative growth was inactive: 1.04. With `NS(=O)(=O)c1ccc2c(c1)COC2` the relative growth was inactive: 1.01. `C[C@H]1CN([C@@H](C)CO)C(=O)Cc2cc(NC(=O)Cc3ccccc3)ccc2O[C@H]1CN(C)Cc1ccc(-c2ccccc2)cc1` was tested, and the relative growth was inactive: 1.01. For `COCC(=O)N1[C@H](C(=O)N2CCN(C)CC2)[C@@H](CO)[C@@H]2Cn3c(ccc(C4=CCCC4)c3=O)[C@@H]21`, the relative growth was inactive: 0.976. `O=C1CN(c2ccccc2)C(=O)N1` was tested, and the relative growth was inactive: 1.04. For `CC(C)NC(=O)N(C)C[C@H]1Oc2ccc(NS(=O)(=O)c3ccccc3)cc2CC(=O)N([C@H](C)CO)C[C@H]1C`, the relative growth was inactive: 0.999. `Nc1ncnc2c1ncn2CCO` was tested, and the relative growth was inactive: 0.864. For `CC(C)NC(=O)Nc1ccc2c(c1)CC(=O)N([C@H](C)CO)C[C@@H](C)[C@@H](CN(C)Cc1ccc3c(c1)OCO3)O2`, the relative growth was inactive: 0.986. With `C[C@@H]1CN([C@@H](C)CO)C(=O)Cc2cc(NC(=O)Cn3cnnn3)ccc2O[C@H]1CN(C)Cc1ccc(Oc2ccccc2)cc1` the relative growth was inactive: 0.959. For `O=c1cc(-c2ccccc2)oc2cc(O)cc(O)c12`, the relative growth was inactive: 1.1. For `C[C@@H]1CN([C@@H](C)CO)C(=O)c2cccc(NC(=O)C3CCOCC3)c2O[C@H]1CN(C)Cc1ccc(C(=O)O)cc1`, the relative growth was inactive: 0.986. In the case of `C[C@@H]1CN([C@@H](C)CO)C(=O)c2cc(NC(=O)c3ccncc3)ccc2O[C@@H](C)CCCCO[C@@H]1CN(C)C(=O)NC1CCCCC1`, the relative growth is reported as inactive: 0.965. In the case of `C[C@@H]1CN([C@@H](C)CO)C(=O)Cc2cc(NS(=O)(=O)c3ccccc3)ccc2O[C@@H]1CN(C)Cc1ccc(-c2ccccc2)cc1`, the relative growth is reported as inactive: 1. In the case of `COc1cccc(CNC(=O)C[C@@H]2C=C[C@H](NC(=O)C3CCOCC3)[C@@H](CO)O2)c1`, the relative growth is reported as inactive: 0.979. In the case of `C[C@@H]1CN([C@@H](C)CO)C(=O)c2cc(NS(=O)(=O)c3ccccc3)ccc2O[C@@H](C)CCCCO[C@H]1CN(C)C(=O)C1CCCCC1`, the relative growth is reported as inactive: 0.976. For `COc1cc(NC(=O)Cn2cnc3c2c(=O)n(C)c(=O)n3C)cc(OC)c1OC`, the relative growth was inactive: 1.02. With `C[C@H]1CN([C@@H](C)CO)C(=O)c2cc(NS(=O)(=O)c3cn(C)cn3)ccc2O[C@@H]1CN(C)Cc1ccc2c(c1)OCO2` the relative growth was inactive: 1.01. With `C[C@H](CO)N1C[C@H](C)[C@H](CN(C)C(=O)Nc2cccc3ccccc23)Oc2c(NC(=O)NC3CCCCC3)cccc2C1=O` the relative growth was inactive: 1.01. With `CC(O)C(=O)O.CCOc1ccc2nc3cc(N)ccc3c(N)c2c1` the relative growth was inactive: 0.285. `CC(=O)N[C@H](CCCNC(=N)N)C(=O)N[C@H](CCCNC(=N)N)C(=O)N[C@H](CCCNC(=N)N)C(=O)N[C@H](CCCNC(=N)N)C(=O)N[C@H](CCCNC(=N)N)C(=O)N[C@H](CCCNC(=N)N)C(=O)N[C@H](CCCNC(=N)N)C(=O)N[C@H](CCCNC(=N)N)C(=O)N[C@H](CCCNC(=N)N)C(N)=O` was tested, and the relative growth was inactive: 0.511. `O=C(N[C@H]1CC[C@@H](CCNS(=O)(=O)c2ccc(F)cc2)O[C@@H]1CO)C1CC1` was tested, and the relative growth was inactive: 0.975. For `CO[C@@H]1CN(C)C(=O)c2cc(NC(=O)Nc3ccc4c(c3)OCO4)ccc2OC[C@@H](C)N(C(C)=O)C[C@H]1C`, the relative growth was inactive: 0.97. `COC(=O)c1c(-c2c(Cl)cccc2Cl)noc1-c1cnn(-c2cccc(Cl)c2)c1C(F)(F)F` was tested, and the relative growth was inactive: 1.01. With `COc1ccc(S(=O)(=O)N2C[C@@H](O)COC[C@@H]3O[C@@H](CC(=O)N[C@@H]4CCN(Cc5ccccc5)C4)CC[C@H]32)cc1` the relative growth was inactive: 0.999. With `CC1(C)[C@H]2CC[C@@]1(CS(N)(=O)=O)C(=O)C2` the relative growth was inactive: 0.999. In the case of `Cc1cc(C(=O)Nc2cccc3c2O[C@@H](CN(C)S(=O)(=O)c2ccccc2)[C@@H](C)CN([C@@H](C)CO)C3=O)n(C)n1`, the relative growth is reported as inactive: 1.01.
